# In all, about 340,000 compounds went through this assay and about 530 (0.16%) were called active. This list was built around the results that the source calls inconclusive (neither active nor inactive); the mix of calls is not that of the screen. No stated cut-off is given here; in the data, active means activity change below about -80%; inconclusive means between about -30% and that limit; inactive means weaker than that.
# Test: Small Molecules that selectively kill Giardia lamblia: qHTS;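 further: parasites exposed to compound for two days anaerobically before the ATP read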
# Conditions: Giardia lamblia trophozoite viability; at 7.66 µM; hits give low values
# Method in brief: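 Trophozoites 100 cells/well + cpd; 48 hrs, 37 deg C, anaerobic. ATPLite 1-Step added, 15-30 min RT, luminescence read (ATP-based viability).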
# On the % scale 0 is the no-effect control and ±100 the full control effect.
row,SMILES,activity change
1,Cc1ccc(Nc2ccc([N+](=O)[O-])nc2[N+](=O)[O-])cc1,active: -95.7%
2,O=[N+]([O-])c1cccc(N=NN(CCO)c2cccc([N+](=O)[O-])c2)c1,inconclusive: -36.2% [inhibitor]
3,Cc1onc(-c2ccccc2)c1C(=O)OCC(=O)N1CCC(C)CC1,inconclusive: -37.7% [inhibitor]
4,Nc1c([N+](=O)[O-])cnnc1-c1ccccc1,inconclusive: -43.6% [inhibitor]
5,Cc1ccc(C)c2[nH]c(=O)c(CCNC(=O)CC(C)(C)C)cc12,inconclusive: -33.6% [inhibitor]
6,COc1cc(/C=C2\SC(=O)N(Cc3ccc(Cl)cc3)C2=O)cc([N+](=O)[O-])c1O,inconclusive: -55.4% [inhibitor]
7,Cc1csc(NC(=O)c2cc3c(s2)CCCCC3)n1,inconclusive: -57.9% [inhibitor]
8,Cn1c(C(=O)N2CCCC(C(=O)NCc3ccccc3)C2)cc2sccc21 (centres undefined),inconclusive: -35.3% [inhibitor]
9,Cc1ccc(O)c(N=Nc2nccs2)c1,inconclusive: -67.6% [inhibitor]
10,O=S(=O)(Nc1ccc(-c2nc3cccnc3s2)cc1)c1cc(F)ccc1F,inactive: -18.9%
11,NCCCn1c(C(=O)c2cc(Cl)c(N)c(Cl)c2)c2ccc([N+](=O)[O-])cc2[n+]1[O-],inconclusive: -55.5% [inhibitor]
12,CCN(CC)S(=O)(=O)c1ccc(C(=O)OCC(=O)Nc2ccc(-c3nc4ccc(C)cc4s3)cc2)cc1,inconclusive: -31.7% [inhibitor]
13,O=C1N=c2ccccc2=C1c1sc(NS(=O)(=O)c2ccccc2)nc1O,inconclusive: -30.3% [inhibitor]
14,Cc1cc(C(=O)OCC(=O)Nc2ccc(S(N)(=O)=O)cc2)c2ccccc2n1,inconclusive: -34.2% [inhibitor]
15,Cc1ccc(NC(=O)CCCn2c(=O)oc3ccccc32)c(O)c1,inactive: 2.19%
16,Cc1nonc1C1CCCN1C(=O)c1cc(COc2ccc(F)cc2F)on1 (centres undefined),inconclusive: -30.2% [inhibitor]
17,Cc1ccc(S(=O)(=O)N2[C@@H](c3cccc(Cl)c3)C(C(=O)O)=CC[C@H]2c2ccc(Cl)c(Cl)c2)cc1,inconclusive: -30.9% [inhibitor]
18,Cc1cccc(/C=N/NC(=O)c2cc(-c3cccnc3)nc3ccccc23)c1,inactive: 13.4%
19,CN(C)C=Nc1ccc2nn(-c3ccccc3)nc2c1,inconclusive: -30.1% [inhibitor]
20,COc1cc2oc3cc(C)oc(=O)c3c2cc1OC,inconclusive: -35.3% [inhibitor]
21,CCOC(=O)N1CCN(S(=O)(=O)c2ccc(C(=O)NNc3nc4c(C)cccc4s3)cc2)CC1,inactive: 10.7%
22,COc1ccc(CC(=O)N(C)CC(=O)Nc2ccccc2Cl)cc1S(=O)(=O)N1CCOCC1,inconclusive: -30.1% [inhibitor]
23,CCCC(=O)NC(c1ccco1)c1cc([N+](=O)[O-])c2cccnc2c1O (centres undefined),inconclusive: -35.3% [inhibitor]
24,COc1ccccc1C(=O)Nc1nnc(CCc2ccccc2)s1,inactive: 9.95%
25,O=C1N[C@@H](Cc2c[nH]c3ccccc23)COC(=O)[C@@H](Cc2ccc(F)cc2)CC/C=C/C[C@@H]1CC(=O)N(CCO)Cc1ccccc1,inactive: -6.86%

row,SMILES,activity change
1,Nc1ccc(-c2nc3ccc(C(=O)O)cc3s2)cc1,inconclusive: -30.9% [inhibitor]
2,Clc1ccc(-n2nnc(-c3ncc[nH]3)n2)cc1Cl,inactive: -3.32%
3,COc1ccc2nc(NC(=O)C34CC5CC(CC(NC(C)=O)(C5)C3)C4)sc2c1,inconclusive: -31% [inhibitor]
4,Cc1ccc(CC(=O)Nc2nc3ccccc3[nH]2)cc1C,inactive: 5.57%
5,Cc1ccc(NC(=O)CN2CCc3ccccc3C2)cc1C,inconclusive: -30.2% [inhibitor]
6,COc1ccc2nc(Cl)cc(Cl)c2c1,inconclusive: -34.1% [inhibitor]
7,Cc1cc(C=C2C(=O)c3ccccc3C2=O)c(C)n1-c1ccccc1,inconclusive: -31.1% [inhibitor]
8,C[C@H](NC(=O)[C@@H]1Cc2ccccc2CN1C(=O)OC(C)(C)C)C(=O)NCc1ccco1,inconclusive: -31.9% [inhibitor]
9,Cc1ccc(C2CC(=O)c3cnc(N4CCN(c5ccccc5)CC4)nc3C2)cc1 (centres undefined),inactive: -4.48%
10,CCCN1CCC(=O)N(CCSc2ccc(Br)cc2)CC1,inactive: 15%
11,CC1CCCN(S(=O)(=O)c2ccc3c(c2)C(C)(C)C(=O)N3C)C1 (centres undefined),inconclusive: -30.3% [inhibitor]
12,O=[N+]([O-])c1ccn(-c2nc(-c3cccs3)cc(C(F)(F)F)n2)n1,inconclusive: -34.3% [inhibitor]
13,CC(C)NC(=S)N=Nc1c(O)[nH]c2ccc([N+](=O)[O-])cc12,inconclusive: -33.1% [inhibitor]
14,COc1ccc(N(C)C(=O)c2ccc3c(Cl)c4c(nc3c2)CCCC4)c(OC)c1,inconclusive: -33.1% [inhibitor]
15,O=[N+]([O-])c1c(C(Cl)Cl)nn(-c2ccccc2)c1N1CCOCC1,inconclusive: -73.1% [inhibitor]
16,O=C(CN1CCN(c2ccccn2)CC1)Nc1ccc(OCc2ccccc2)cc1,inactive: 9.41%
17,CCCOc1ccc2cc(-c3ccccn3)c(=O)oc2c1,inconclusive: -56.8% [inhibitor]
18,Cc1cccc(/N=C/c2c(O)cc(C)oc2=O)n1,inconclusive: -39.5% [inhibitor]
19,Cc1ccc(Nc2cc(=O)[nH]c(=O)[nH]2)cc1Cl,inconclusive: -36.5% [inhibitor]
20,CC1CCCCN1C(=O)c1cc(-c2ccc3c(c2)OCO3)on1 (centres undefined),inconclusive: -40.5% [inhibitor]
21,O=C1CC[C@@H]2CC(N3CCN(c4ccccc4)CC3)C[C@@H]3CCN1[C@H]23 (some centres undefined),inconclusive: -37.2% [inhibitor]
22,CCCC(=O)N1CCN(c2ccc(NC(=O)c3cc4ccccc4o3)cc2)CC1,inactive: -11.5%
23,CCC(C)Sc1ccc([C@@H]2[C@@H]3C(=O)N(CC)C(=O)[C@@H]3[C@]3(C(=O)OC)CCCCN23)cc1 (some centres undefined),inconclusive: -31.1% [inhibitor]
24,CN(C(=O)c1cccc(NC(=O)Cc2ccc(NC(=O)C3CCCN(C(=O)C4CCC4)C3)cc2)c1)C1CCCCC1 (centres undefined),inconclusive: -35.3% [inhibitor]
25,O=C(NNC(=S)Nc1ccc(F)cc1)c1cccc([N+](=O)[O-])c1,inactive: 16.8%

row,SMILES,activity change
1,CCOC(=O)N1CCN(S(=O)(=O)c2ccc(C(=O)Nc3ccc4c(c3)C(=O)NC4=O)cc2)CC1,inactive: -10.6%
2,O=C(CSc1nc(-c2ccco2)cc(C(F)(F)F)n1)Nc1cccnc1,inactive: 4.64%
3,CN(C)c1ccc(NC(=S)c2ccccn2)cc1,inconclusive: -59.8% [inhibitor]
4,CCN(C(=O)C1CCCN(c2nc(-c3ccc(OC)cc3)no2)C1)c1ccc(OC)cc1 (centres undefined),inconclusive: -41.2% [inhibitor]
5,CCCNC(=O)C1CCCN(S(=O)(=O)c2ccc3c(c2)CC(C)N3C(=O)C2CC2)C1 (centres undefined),inconclusive: -34.7% [inhibitor]
6,CC1Cc2ccccc2N1c1ncnc(N)c1[N+](=O)[O-] (centres undefined),inconclusive: -32.5% [inhibitor]
7,CCOC(=O)CN1C(=O)S/C(=C/c2cccc([N+](=O)[O-])c2O)C1=O,inconclusive: -77.3% [inhibitor]
8,CCN(CC(=O)N(CC(C)C)c1c(N)n(CC(C)C)c(=O)[nH]c1=O)Cc1nc2ccccc2c(=O)[nH]1,inactive: -2.63%
9,Cc1noc(C)c1C(=O)OCC(=O)NCCc1ccc(S(N)(=O)=O)cc1,inactive: -14.1%
10,COc1ccc(N(CC(=O)N2CCC(Cc3ccccc3)CC2)S(C)(=O)=O)cc1,inconclusive: -34% [inhibitor]
11,CN1CCN(C(=O)/C=C/c2ccc([N+](=O)[O-])o2)CC1,inconclusive: -75.1% [inhibitor]
12,Cc1cc(NC(=O)NC(=O)c2ccccc2F)no1,inconclusive: -33.4% [inhibitor]
13,O=[N+]([O-])c1ccc(CN2CCN(c3ccccc3Cl)CC2)o1,inconclusive: -70% [inhibitor]
14,O=C(Nc1cccc(NC(=O)c2ccccc2Cl)c1)c1ccc([N+](=O)[O-])o1,active: -103%
15,Cc1cc(NS(=O)(=O)c2ccc(NC(=O)COc3ccc(Cl)c(C)c3)cc2)no1,inactive: 13%
16,Cc1cc(C)cc(-c2nnc(SCC(=O)NC3CC3)o2)c1,inconclusive: -44.2% [inhibitor]
17,COc1nc(C)nc2c1sc(=S)n2C,inconclusive: -32.1% [inhibitor]
18,CC(=O)C1=NN(c2ccc(Cl)cc2)C(c2ccc3c(c2)OCO3)N(C(C)=O)N1C (centres undefined),inconclusive: -32% [inhibitor]
19,O=C(NCc1cccc(Cl)c1)c1ccc(CS(=O)Cc2ccccc2Cl)o1 (centres undefined),inconclusive: -30.9% [inhibitor]
20,COc1ccc(/C=C2\CN(Cc3ccccc3)C/C(=C\c3ccc(OC)c(O)c3)C2=O)cc1O,inconclusive: -35.6% [inhibitor]
21,CCn1c(/C=C/c2ccc([N+](=O)[O-])o2)nc2ccccc2c1=O,inconclusive: -69.9% [inhibitor]
22,O=C(CSc1nnc(CNC(=O)c2ccccc2)o1)Nc1nccs1,inconclusive: -30.1% [inhibitor]
23,Cc1cc(C)nc(NS(=O)(=O)c2ccc(N/C=C/C(=O)c3ccc(Cl)c(Cl)c3)cc2)n1,inconclusive: -39% [inhibitor]
24,C=CC1=C2C=C(C3CC3)N(CCCN(CC)CC)C=C2C(=O)C(C)(OC(=O)c2ccco2)C1=O (centres undefined),inconclusive: -31.5% [inhibitor]

# — PubChem BioAssay AID540267 (National Center for Advancing Translational Sciences (NCATS), 2011)
